In all, about 110,000 compounds went through this assay and about 230 (0.21%) showed an effect of 50% or more. The list shows a part of the results.
Each compound was assayed against DPAP1 (Plasmodium falciparum, UniProt Q8IIJ9) (assay: primary screen, percent inhibition; read by cleavage of a fluorogenic dipeptide substrate; higher = more effect of the substance).
Set-up: species or system P. falciparum D10 trophozoite lysates; single well
Method: HTS was performed in black 384-well plates. The first and last two columns of each plate contained our negative (DMSO) and positive (10 μM JCP410) controls, and the 20 central columns the test compounds at 10 μM. Compounds were first diluted 50-fold into assay buffer (50 mM sodium acetate, 5 mM MgCl2, 10 mM β-mercaptoethanol, and 0.1% CHAPS, pH 5.5) from a 10 mM DMSO stock plates. One microliter of this 200 μM intermediate stock plate was dispensed into the assay plate. […] After 30 min, the reaction was quenched with 20 μL of 0.5 M acetic acid, and the fluorescent intensity measured at 523 nm (λex = 492 nm) using an Analyst HT multimode plate reader (Molecular Devices).
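Also: 30 min substrate incubation versus DMSO and 10 µM JCP410 controls.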

Chain of DPAP1 (Q8IIJ9 whole entry, looked up): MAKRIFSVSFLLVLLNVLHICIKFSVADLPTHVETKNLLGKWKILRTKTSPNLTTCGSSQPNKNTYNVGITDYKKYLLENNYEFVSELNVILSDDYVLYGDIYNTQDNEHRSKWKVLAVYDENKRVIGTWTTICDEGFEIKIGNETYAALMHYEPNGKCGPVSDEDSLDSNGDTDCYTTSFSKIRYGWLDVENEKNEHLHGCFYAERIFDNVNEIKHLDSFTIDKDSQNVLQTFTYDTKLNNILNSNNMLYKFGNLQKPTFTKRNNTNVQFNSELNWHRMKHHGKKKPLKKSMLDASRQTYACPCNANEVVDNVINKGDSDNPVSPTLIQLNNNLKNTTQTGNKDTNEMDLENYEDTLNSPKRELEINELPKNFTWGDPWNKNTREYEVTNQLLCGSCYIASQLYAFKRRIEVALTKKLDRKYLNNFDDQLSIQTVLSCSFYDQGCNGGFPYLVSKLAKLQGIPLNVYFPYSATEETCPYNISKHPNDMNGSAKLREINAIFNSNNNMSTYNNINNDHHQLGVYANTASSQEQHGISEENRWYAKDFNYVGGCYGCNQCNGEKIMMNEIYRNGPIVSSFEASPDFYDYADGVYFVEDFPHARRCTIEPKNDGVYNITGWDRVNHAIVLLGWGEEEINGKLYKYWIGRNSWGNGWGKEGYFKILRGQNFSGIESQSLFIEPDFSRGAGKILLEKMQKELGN

SMILES	% Inhibition @ 10 uM [%]
Cc1ccc(-c2cc(C(=O)NCc3ccc(S(N)(=O)=O)cc3)c3ccccc3n2)cc1C	-4.77
CC1(C)CC(O)c2ccccc2O1 (stereo not drawn)	1.42
Cc1nc(CSc2cc(C)c3ccccc3n2)cs1	2.38
CCCCN(C(=O)c1ccc(Cl)cc1)C1=CC2CCC(C1)N2C (stereo not drawn)	2.25
C(=C\c1ccccc1)/CN1CCN(C2CC3CCC2C3)CC1 (stereo not drawn)	-0.0908
COc1ccc2nc(NC(=O)Cn3cccc3)sc2c1	0.981
COc1cc(Cc2nnc(C(=O)NCCC3=CCCCC3)o2)cc(OC)c1OC	3
COCCCN1C(=O)S/C(=C/c2c[nH]c3ccc(Br)cc23)C1=O	2.4
CCOc1ccc(NC(=O)Cc2ccc(F)cc2)cc1	-3.26
O=C(Cc1ncc(-c2ccccc2)cn1)c1ccccc1	0.035
Cc1cc(Br)ccc1NC(=O)c1ccc(Br)cc1	1.41
O=C(c1ccc(CSc2nc3ccncc3[nH]2)cc1)N1CCCCCC1	0.137
CCOc1cc(C2C(C#N)=C(N)Oc3[nH]nc(C)c32)ccc1OC(F)F (stereo not drawn)	0.851
COc1ccc(C2C3=C(O)CCCC3=Nc3ncnn32)c(OC)c1OC (stereo not drawn)	7.63
CC1CCN(c2nc3ccccc3c3nc(-c4cccnc4)nn23)CC1	-0.692
O=C(CN1C(=O)S/C(=C\c2ccccn2)C1=O)N1CCOCC1	0.931
O=C(Nc1ccccc1O)c1ccc2c(c1)C(=O)N(Cc1cccnc1)C2=O	-1.22
O=C(O)c1ccc(CN2CCN(c3ccc(F)cc3)CC2)cc1	-2.81
CCc1c(C)c2ccc3c(c2oc1=O)CN(Cc1cccc(OC)c1)CO3	1.6
CCOC(=O)NC(=O)CSc1nc(C(C)(C)C)cc(C(F)(F)F)c1C#N	0.726
COc1ccc(C(O)Cn2c(=N)n(CCN3CCCCC3)c3ccccc32)cc1 (stereo not drawn)	-2.14

SMILES	% Inhibition @ 10 uM [%]
Fc1ccc(CN2CCN(c3cccc(Cl)c3)CC2)cc1Br	3.1
CC(C)CCNC(=O)c1cc2c(s1)-c1ccccc1S(=O)(=O)C2	2.84
O=C(c1nn2c(c1Cl)NC(c1ccccc1)CC2C(F)(F)F)N1CCN2CCCC2C1 (stereo not drawn)	-0.725
C=CCNc1ccc(-c2ccccc2)cc1	6.69
Cc1cccc(NC(=O)CSc2nc3cc(C)ccc3[nH]2)c1	3.81
CCOC(=O)c1c(NC(=O)CNCCC(C)C)sc2c1CCCC2	-1.45
COc1ccc(N(CN2C(=O)c3ccccc3C2=O)C(=O)c2cccc(OC)c2)cc1	1.42
CC1CCN(Cc2c(O)ccc3ccccc23)CC1	-3.63
O=C(O)c1ccccc1S(=O)CCO (stereo not drawn)	3.16
CN1CCN(CCCNC(=O)c2cc(-c3cccnc3)nc3ccccc23)CC1	1.16
CC(=O)N1CC[C@@]2(O)CCCC[C@@H]2[C@H]1c1cccc([N+](=O)[O-])c1	0.98
Cc1cc(C)c(NC(=O)CCCC(=O)O)c(C)c1	-2.55
CCOC(=O)c1c(N)sc(C(C)=O)c1C	1.42
Cc1onc(-c2ccccc2Cl)c1C(=O)Nc1cccc(C(F)(F)F)c1	2.78
CCCOc1ccc(C2c3c(-c4ccccc4O)n[nH]c3C(=O)N2CCO)cc1OCC (stereo not drawn)	-6.85
COc1cc(NC(=O)C2CCN(c3cc(C)nc4c(-c5ccc(Cl)cc5)c(C)nn34)CC2)ncn1	-0.138
Cc1cc(Cl)ccc1OCC(=O)Nc1ccc(C#N)cc1	-0.173
Cc1ccccc1NC(=O)CSc1ccc(Br)cc1	-0.413
CCOC(=O)c1ccc2c(c1)c1c3n2CCNC3CCC1 (stereo not drawn)	-8.11
CC(=O)Nc1ccc(/N=C/c2c(C)nn(-c3ccc(Br)cc3)c2O)cc1	3.65
COc1ccccc1C1C(C(=O)Nc2cccnc2)=C(C)Nc2nc(SCc3ccccc3)nn21 (stereo not drawn)	-0.363

SMILES	% Inhibition @ 10 uM [%]
O=C(Nc1cc(Cl)c(O)c(Cl)c1)c1ccccc1F	3.91
COc1ccc(C2CC(c3ccccc3)=NN2C(=O)CCCC(=O)O)cc1OC (stereo not drawn)	-5.31
CC(=O)c1ccc(OCCCCCOc2ccc(C(C)=O)cc2)cc1	-1.92
CN(C)CCNc1cc(-c2cccnc2)nc2ccccc12	1.38
CS(=O)(=O)N(CC(=O)N1CCN(c2ccccc2)CC1)c1cc(C(F)(F)F)ccc1Cl	-0.992
Cc1ccc2oc(=O)c3cnn(CC(=O)N(Cc4ccco4)C4CCCCC4)c3c2c1	-1.7
Cc1ccnc(NC(=O)C2CCCN(S(=O)(=O)c3ccc4[nH]c5c(c4c3)CCCCC5)C2)c1 (stereo not drawn)	-6.26
Cc1cc(C)c2nc(N3CCC(C(=O)NC4CCCCC4C)CC3)sc2c1 (stereo not drawn)	-1.58
O=C(COc1ccc(Br)cc1)Nc1ccc(OC(F)F)cc1	0.873
Cc1nc2c(-c3ccccc3)c(C)nn2c(C)c1CC(=O)N1CC(C)CC(C)C1 (stereo not drawn)	-6.09
N=C1/C(=C\c2ccc(OCc3ccccc3F)cc2)C(=O)N=C2SC(N3CCOCC3)=NN12	-1.66
CCN(CC)c1ccc([N+](=O)[O-])c2nonc12	0.878
O=C1c2oc3ccccc3c(=O)c2C(c2ccc(Cl)cc2)N1c1nccs1 (stereo not drawn)	-5.35
CCOC(=O)c1c(NC(=O)COCc2cc(-c3ccc4c(c3)OCO4)on2)sc(C)c1C	0.56
CN(C)CCCN1C(=O)C(O)=C(C(=O)c2ccc(F)cc2)C1c1ccccc1 (stereo not drawn)	1.17
O=C(/C=C/c1ccc(F)cc1)NC(=S)N1CCOCC1	0.0345
COc1cc(/C=C2/NC(=O)N(Cc3ccc(C)cc3)C2=O)ccc1OCC(=O)O	6.96
COc1cc(OC)c(C2Nc3cccc4cccc(c34)N2)cc1OC	-0.305
N#C/C(=C\c1c(Oc2ccccc2Cl)nc2ccccn2c1=O)C(=O)NCc1ccccc1	-1.86
O=C(O)/C=C/c1cccc(NS(=O)(=O)c2ccccc2)c1	-6.29
CC(C)CCNC(=O)Cn1c(SCc2cccc(C(F)(F)F)c2)nc2ccncc21	1.03
